In patent US20220389118A1 (Chugai, published 2022) one finds binding result and Kd data, which are given here for two molecules.

For experiment [1], the target named is T1, mouse FcγRIV extracellular domain with C-terminal His tag (mouse, UniProt A0A0B4J1G0 21-203).
T1 construct: also called mFcγRIV; mFc γ R IV
T1 sequence: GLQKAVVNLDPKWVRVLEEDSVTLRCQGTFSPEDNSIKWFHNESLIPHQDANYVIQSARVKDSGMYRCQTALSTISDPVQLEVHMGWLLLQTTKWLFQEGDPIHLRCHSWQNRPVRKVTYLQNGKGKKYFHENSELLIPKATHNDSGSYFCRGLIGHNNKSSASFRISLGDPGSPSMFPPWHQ
Nature of the experiment: SPR, antibody on protein L, mFcγR as analyte, 25 C. For orientation: SPR reads the build-up and loss of mass on a sensor chip optically.

The target in experiment [2] is T2, mouse FcγRI extracellular domain with C-terminal His tag (mouse, UniProt P26151 25-297).
T2 construct: extracellular domain; also called mFcγRI; mFc γ R I
T2 sequence (looked up): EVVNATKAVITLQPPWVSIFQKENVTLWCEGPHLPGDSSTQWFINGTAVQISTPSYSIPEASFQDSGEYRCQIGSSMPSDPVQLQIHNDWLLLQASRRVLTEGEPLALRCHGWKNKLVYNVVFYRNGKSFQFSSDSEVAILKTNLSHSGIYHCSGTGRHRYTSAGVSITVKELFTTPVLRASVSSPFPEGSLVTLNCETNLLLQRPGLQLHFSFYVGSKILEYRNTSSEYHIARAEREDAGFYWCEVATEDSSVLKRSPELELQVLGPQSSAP
Nature of the experiment: SPR, antibody on protein L, mFcγR as analyte, 25 C.

Experiment [3] has as its target T3, mouse FcγRIII extracellular domain with C-terminal His tag (mouse, UniProt P08508 31-215).
T3 construct: extracellular domain; also called mFcγRIII; mFc γ R III
T3 sequence (looked up): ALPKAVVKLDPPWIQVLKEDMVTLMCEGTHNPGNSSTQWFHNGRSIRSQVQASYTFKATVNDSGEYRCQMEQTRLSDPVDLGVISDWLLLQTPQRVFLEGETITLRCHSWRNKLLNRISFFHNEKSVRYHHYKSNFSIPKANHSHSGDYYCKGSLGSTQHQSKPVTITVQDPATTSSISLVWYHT
In words: SPR, antibody on protein L, mFcγR as analyte, 25 C.

Experiment [4] has as its target T4, mouse FcγRIIb extracellular domain with C-terminal His tag (mouse, UniProt P08101 30-210).
T4 construct: extracellular domain; also called mFcγRIIb; mFcγRII
T4 sequence (looked up): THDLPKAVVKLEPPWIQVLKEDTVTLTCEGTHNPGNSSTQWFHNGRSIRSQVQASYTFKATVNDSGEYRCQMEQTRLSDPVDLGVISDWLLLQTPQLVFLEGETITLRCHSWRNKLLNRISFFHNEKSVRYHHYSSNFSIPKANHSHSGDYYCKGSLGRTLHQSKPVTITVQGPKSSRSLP
Nature of the experiment: SPR, antibody on protein L, mFcγR as analyte, 25 C.

Experiment [5] has as its target T4, mouse FcγRIIb extracellular domain with …. Nature of the experiment: SPR (Biacore).
The target is the same in experiment [6]. Nature of the experiment: SPR, Ab on protein L, mFcγR analyte, 25 C.

B1: VH3/L(WT)-IgG1-F760 (antibody)
heavy: QVQLQESGPGLVKPSETLSLTCAVSGHSISHDHAWSWVRQPPGEGLEWIGFISYSGITNYNPSLQGRVTISRDNSKNTLYLQMNSLRAEDTAVYYCARSLARTTAMDYWGEGTLVTVSS[sequence of human IgG1 constant region with L235R S239K (EU numbers) omitted]
light: DIQMTQSPSSLSASVGDRVTITCRASQDISSYLNWYQQKPGKAPKLLIYYTSRLHSGVPSRFSGSGSGTDFTFTISSLQPEDIATYYCQQGNTLPYTFGQGTKVEIKRTVAAPSVFIFPPSDEQLKSGTASVVCLLNNFYPREAKVQWKVDNALQSGNSQESVTEQDSKDSTYSLSSTLTLSKADYEKHKVYACEVTHQGLSSPVTKSFNRGEC
notes: VH3-IgG1 with L235R and S239K (EU numbering); copies: 2 + 2
With B1, the binding result in experiment [1], in experiment [2], in experiment [3] and in experiment [4] was “no binding” in each case.

B2: VH3/L(WT)-IgG1-F1022 (antibody)
heavy: QVQLQESGPGLVKPSETLSLTCAVSGHSISHDHAWSWVRQPPGEGLEWIGFISYSGITNYNPSLQGRVTISRDNSKNTLYLQMNSLRAEDTAVYYCARSLARTTAMDYWGEGTLVTVSS[sequence of human IgG1 constant region with K326D L328Y (EU numbers) omitted]
light: DIQMTQSPSSLSASVGDRVTITCRASQDISSYLNWYQQKPGKAPKLLIYYTSRLHSGVPSRFSGSGSGTDFTFTISSLQPEDIATYYCQQGNTLPYTFGQGTKVEIKRTVAAPSVFIFPPSDEQLKSGTASVVCLLNNFYPREAKVQWKVDNALQSGNSQESVTEQDSKDSTYSLSSTLTLSKADYEKHKVYACEVTHQGLSSPVTKSFNRGEC
notes: VH3-IgG1 with K326D and L328Y (EU numbering); copies: 2 + 2
A word on the Kd: it is the concentration at which binding is half-saturated. Read a low Kd as higher affinity. Turning to B2, the dissociation constant (Kd) was determined as 10 nM in experiment [5] and 8.5 nM in experiment [6].
